PubChem BioAssay AID1768 (National Center for Advancing Translational Sciences (NCATS), 2009)
Screen size: about 270,000 compounds; about 620 (0.23%) were called active. The inconclusive results got no clear call from the source; some entries with a clear call stand among them for comparison. Calls come from the whole dose curve; as a rule, active = well fitted inhibition curve with a large enough effect in the polarisation, with a control signal flat (not every such curve was filed as active); inconclusive = small, poorly fitted or top-dose-only effect, or effect the other way, or a change in a side signal; inactive = no such curve, though single readings can be large or run the other way; the % refers to the polarisation. Potencies beside an inconclusive call are fits to weak or partial responses and may not hold up. “Side channel” marks fits to a control or component signal instead of the main read-out.

biological target: Menin (Homo sapiens) (UniProt O00255); experiment: qHTS Assay for Inhibitors Targeting the Menin-MLL Interaction in MLL Related Leukemias: Competition With Texas Red Labeled MLL-derived Mutant Peptide; details: fluorescence polarization; FP activity change, negative = inhibition: at 61.6 µM (top of the series); for FP activity change, negative = inhibition: % of control where 0% means no effect
Sequence of UniProt O00255 (O00255 whole entry, looked up): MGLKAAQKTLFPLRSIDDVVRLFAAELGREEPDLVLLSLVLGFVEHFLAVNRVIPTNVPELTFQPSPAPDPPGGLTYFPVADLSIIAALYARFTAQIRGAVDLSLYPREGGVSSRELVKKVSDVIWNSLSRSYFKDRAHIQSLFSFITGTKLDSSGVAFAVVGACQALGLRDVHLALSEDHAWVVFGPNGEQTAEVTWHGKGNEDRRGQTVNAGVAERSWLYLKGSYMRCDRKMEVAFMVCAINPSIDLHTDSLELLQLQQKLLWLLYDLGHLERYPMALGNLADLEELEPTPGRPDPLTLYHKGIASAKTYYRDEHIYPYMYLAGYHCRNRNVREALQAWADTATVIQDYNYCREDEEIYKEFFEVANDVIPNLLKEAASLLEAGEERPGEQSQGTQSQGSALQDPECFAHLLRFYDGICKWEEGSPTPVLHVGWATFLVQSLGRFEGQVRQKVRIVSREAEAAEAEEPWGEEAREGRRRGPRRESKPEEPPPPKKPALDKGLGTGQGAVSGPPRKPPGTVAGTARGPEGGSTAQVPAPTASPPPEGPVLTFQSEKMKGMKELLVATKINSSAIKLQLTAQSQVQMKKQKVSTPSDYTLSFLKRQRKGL
Potency is the fitted concentration of half-maximal effect; tags give direction and shape of the fitted curve or compound fluorescence and quenching.

Potency, inconclusive:
COc1cc(/C=N/NC(=O)c2ccc(CSc3nc4ccccc4[nH]3)cc2)ccc1O 11.2 µM [quencher, side channel, partial curve]
Cc1ccc(/C=N/NC(=O)c2nnn(-c3nonc3N)c2-c2cccs2)cc1 11.2 µM [quencher, side channel, partial curve]
CCOC(=O)c1ccc(-n2c(CN3CCC(C(N)=O)CC3)nc3ccc([N+](=O)[O-])cc3c2=O)cc1 35.5 µM [quencher, side channel, partial curve]
COc1ccc(C(=O)Nn2c(SCC(=O)c3ccc(Cl)cc3)nc3ccccc3c2=O)cc1 39.8 µM [inhibitor, single point]
COc1ccccc1C(=O)N1CCN(C(=O)c2oc3ccc(C)cc3c2C)CC1 15.8 µM [fluorescent, side channel, partial curve]
COc1ccc(CN(C)S(=O)(=O)c2nnc(NC(=O)c3cccc(F)c3)s2)cc1OC 14.1 µM [quencher, side channel, partial curve]
COC(=O)c1ccc(-c2noc(CN(C)CCC3CCCCO3)n2)cc1 (configuration not stated) 39.8 µM [quencher, side channel, partial curve]
N#Cc1c(NC(=O)C2CC(Cl)=CCC2C(=O)O)sc2c1CCCC2 (configuration not stated) 14.1 µM [quencher, side channel, partial curve]
COc1cccc(/C=N\NC(=O)c2ccc(Cn3cc(Br)c([N+](=O)[O-])n3)o2)c1O 2.82 µM [quencher, side channel, full curve]
Cc1ccc(C)c(N2CCN(CCCNC(=O)Cn3c(=O)c4cccn4c4cccnc43)CC2)c1 28.2 µM [inhibitor, single point]
CCCOc1ccc(-c2nnn(CC(=O)N3CCC(C)CC3)n2)cc1 11.2 µM [fluorescent, side channel, partial curve]
COc1ccc(C(=O)NC(=S)N2CCCc3ccccc32)cc1OC 31.6 µM [inhibitor, single point]
O=c1oc2ccccc2c(NCc2ccccc2F)c1[N+](=O)[O-] 6.31 µM [fluorescent, side channel, single point]
Cc1cc(=O)[nH]c(N/N=C/c2sccc2C)n1 2.51 µM [inhibitor, partial curve]
CNCCCOc1ccc(C(C)(C)c2ccccc2)cc1 14.1 µM [fluorescent, side channel, partial curve]
COc1ccccc1/C=C1\SC(N2CCC(C)CC2)=NC1=O 2.82 µM [inhibitor, full curve, poor fit]
COC(=O)c1c(-c2cccc(C)c2)csc1NC(=O)C1CCCO1 (configuration not stated) 11.2 µM [fluorescent, side channel, partial curve]
CC(=O)N1CCn2c3c(c(=O)c4cc(C)ccc42)CCC31 (configuration not stated) 39.8 µM [inhibitor, single point]
Cc1cc(C)nc(N/C(=N\S(=O)(=O)Cc2ccccc2)Nc2ccccc2Br)n1 3.55 µM [fluorescent, side channel, full curve]
O=C(Nc1cccc(-c2csc(-c3ccccc3)n2)c1)c1cccs1 35.5 µM [inhibitor, single point]
O=C(CCS(=O)(=O)c1ccccc1)Nc1cccc2c1C(=O)NC2=O 25.1 µM [inhibitor, single point]
N#Cc1cccc(NC(=O)COC(=O)c2ccccc2C(=O)c2ccc(Cl)c([N+](=O)[O-])c2)c1 12.6 µM [quencher, side channel, partial curve]
Cc1nc2c(C(=O)NCc3ccccc3)c[nH]n2c(=O)c1Cl 28.2 µM [quencher, side channel, single point]
COc1ccc(CCNC(=O)c2ccc3ccccc3n2)cc1 0.708 µM [fluorescent, side channel, full curve]
COCCCn1c(SCc2cccc(C(F)(F)F)c2)nc2cc(OC)c(OC)cc2c1=N 8.91 µM [quencher, side channel, partial curve]
Cc1cccc(NC(=O)C2CCN(S(=O)(=O)c3cccs3)CC2)c1 11.2 µM [quencher, side channel, partial curve]
C=CCNc1nc(Cl)nc(Nc2ccc([N+](=O)[O-])cc2)n1 20 µM [quencher, side channel, partial curve]
O=S(=O)(N/N=C\C=C\c1ccccc1)c1ccc(Br)cc1 39.8 µM [quencher, side channel, single point]
CC(C)(C)CC(C)(C)c1ccc(OCCOCC[N+](C)(C)Cc2ccccc2)cc1 3.16 µM [inhibitor, full curve]
COc1ccccc1-c1cc(C(F)(F)F)n2ncc(S(=O)(=O)c3ccccc3)c2n1 4.47 µM [inhibitor, single point]
O=C(O)c1sccc1S(=O)(=O)Nc1ccc(Cl)cc1 11.2 µM [quencher, partial curve]

Potency, inactive:
CCN1C(=NCCOC)N[C@@H](CCc2ccccc2)[C@H](C(=O)OC)[C@H]1C

FP activity change, negative = inhibition, inactive:
N=c1c(C(=O)NCc2ccccc2)cc2c(=O)n3ccccc3nc2n1CCCN1CCOCC1 -3.73%
CCOc1ccccc1N(CC)C(=O)c1nn(C)c2c1CSc1ccccc1-2 -12.2%
COC(=O)N1C2=C(c3ccccc3[C@@H]1CC(=O)Nc1ccc(Br)cc1)[C@@H]1C(=O)N(c3ccccc3)C(=O)[C@@H]1[C@H](C)C2 -11.3% [at 11.7 µM]
CC(=O)/C(=C\c1ccccc1)CC(=O)O -15.9%
CCOC(=O)C(C(=O)OCC)C(C(=O)OCC)N1CCOCC1 (configuration not stated) -5.87%
